Results reported in the supplement of paper PMC11125491.
± gives the standard deviation of the averaged measurements. Growth of baker's yeast expressing single-residue variants of Pneumocystis jirovecii dihydrofolate reductase in 8.8 or 44 µM methotrexate (about 75% and 90% inhibition of the wild type). Selection coefficient per generation; 0 = like wild type, above 0 = less sensitive, below 0 = more sensitive or loss of function. No active / inactive call per row; the paper calls resistant above 0.220 (8.8 µM) or 0.243 (44 µM) together with a significance test. At 44 µM about 15% of codons end with one read or none, so the lowest values are floors (replicate rank correlation 0.74; 0.94 at 8.8 µM).

B1: UniProt A0EPZ9; numbered along this chain (parent)
chain: MDWQKSLTLIVALTLSRGIGLKNDLPWKLKSDMMFFSRVTSGLLVTRSTGQMNVVLMGRKTWESLPAHSRPLKNRINVVISRQEVLDLGGGAYHARSLDDALALLSQIYDSTSKIQLNRVFVIGGGELCKAAMEHSRLNRIIATVIHNEVDCDVFFPIDFRSSQSCLPWRKQDHSVLEAWVGSKVPQGKINENGFIYEFEMWIRDI

Variants of: B1
Experiment: selection coefficient against synonymous wild-type codons (log2 per generation); higher = faster growth than wild type
Conditions: with Saccharomyces cerevisiae carrying the variant on a plasmid
Protocol: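 Pooled growth of yeast carrying single-residue variants of P. jirovecii dihydrofolate reductase (own DFR1 gene intact), two passages at 30 °C, three cultures, sequenced before and after. Codons with under 15 starting reads are left out; codons of one change are averaged.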

Variant: S69L
- selection coefficient against synonymous wild-type codons (log2) (methotrexate 8.8 µM): 0.302 ± 0.055
- selection coefficient against synonymous wild-type codons (log2) (methotrexate 44 µM): 0.322 ± 0.072

Variant: S69M
- selection coefficient against synonymous wild-type codons (log2) (methotrexate 8.8 µM): 0.383 ± 0.0098
- selection coefficient against synonymous wild-type codons (log2) (methotrexate 44 µM): 0.407 ± 0.017

Variant: S69N
- selection coefficient against synonymous wild-type codons (log2) (methotrexate 8.8 µM): -0.0749 ± 0.031
- selection coefficient against synonymous wild-type codons (log2) (methotrexate 44 µM): -0.115 ± 0.15

Variant: S69P
- selection coefficient against synonymous wild-type codons (log2) (methotrexate 8.8 µM): -0.126 ± 0.067
- selection coefficient against synonymous wild-type codons (log2) (methotrexate 44 µM): -0.118 ± 0.1

Variant: S69Q
- selection coefficient against synonymous wild-type codons (log2) (methotrexate 8.8 µM): 0.126 ± 0.045
- selection coefficient against synonymous wild-type codons (log2) (methotrexate 44 µM): 0.117 ± 0.049

Variant: S69R
- selection coefficient against synonymous wild-type codons (log2) (methotrexate 8.8 µM): -0.1 ± 0.089
- selection coefficient against synonymous wild-type codons (log2) (methotrexate 44 µM): -0.0258 ± 0.15

Variant: S69T
- selection coefficient against synonymous wild-type codons (log2) (methotrexate 8.8 µM): 0.0223 ± 0.067
- selection coefficient against synonymous wild-type codons (log2) (methotrexate 44 µM): -0.00104 ± 0.098

Variant: S69V
- selection coefficient against synonymous wild-type codons (log2) (methotrexate 8.8 µM): -0.0653 ± 0.0087
- selection coefficient against synonymous wild-type codons (log2) (methotrexate 44 µM): -0.0855 ± 0.13

Variant: S69W
- selection coefficient against synonymous wild-type codons (log2) (methotrexate 8.8 µM): 0.378 ± 0.011
- selection coefficient against synonymous wild-type codons (log2) (methotrexate 44 µM): 0.4359 ± 0.0018

Variant: S69Y
- selection coefficient against synonymous wild-type codons (log2) (methotrexate 8.8 µM): 0.225 ± 0.092
- selection coefficient against synonymous wild-type codons (log2) (methotrexate 44 µM): 0.286 ± 0.053

Variant: R70A
- selection coefficient against synonymous wild-type codons (log2) (methotrexate 8.8 µM): -0.199 ± 0.12
- selection coefficient against synonymous wild-type codons (log2) (methotrexate 44 µM): -0.122 ± 0.16

Variant: R70C
- selection coefficient against synonymous wild-type codons (log2) (methotrexate 8.8 µM): -0.223 ± 0.019
- selection coefficient against synonymous wild-type codons (log2) (methotrexate 44 µM): -0.227 ± 0.06

Variant: R70D
- selection coefficient against synonymous wild-type codons (log2) (methotrexate 8.8 µM): -0.00152 ± 0.07
- selection coefficient against synonymous wild-type codons (log2) (methotrexate 44 µM): -0.00243 ± 0.1

Variant: R70E
- selection coefficient against synonymous wild-type codons (log2) (methotrexate 8.8 µM): 0.101 ± 0.055
- selection coefficient against synonymous wild-type codons (log2) (methotrexate 44 µM): 0.093 ± 0.021

Variant: R70G
- selection coefficient against synonymous wild-type codons (log2) (methotrexate 8.8 µM): -0.0908 ± 0.091
- selection coefficient against synonymous wild-type codons (log2) (methotrexate 44 µM): -0.127 ± 0.17

Variant: R70H
- selection coefficient against synonymous wild-type codons (log2) (methotrexate 8.8 µM): -0.312 ± 0.22
- selection coefficient against synonymous wild-type codons (log2) (methotrexate 44 µM): -0.149 ± 0.054

Variant: R70I
- selection coefficient against synonymous wild-type codons (log2) (methotrexate 8.8 µM): -0.174 ± 0.064
- selection coefficient against synonymous wild-type codons (log2) (methotrexate 44 µM): -0.0237 ± 0.0034

Variant: R70K
- selection coefficient against synonymous wild-type codons (log2) (methotrexate 8.8 µM): 0.078 ± 0.041
- selection coefficient against synonymous wild-type codons (log2) (methotrexate 44 µM): 0.0719 ± 0.095

Variant: R70L
- selection coefficient against synonymous wild-type codons (log2) (methotrexate 8.8 µM): 0.0146 ± 0.041
- selection coefficient against synonymous wild-type codons (log2) (methotrexate 44 µM): -0.0211 ± 0.12

Variant: R70M
- selection coefficient against synonymous wild-type codons (log2) (methotrexate 8.8 µM): -0.179 ± 0.098
- selection coefficient against synonymous wild-type codons (log2) (methotrexate 44 µM): -0.222 ± 0.2

Variant: R70N
- selection coefficient against synonymous wild-type codons (log2) (methotrexate 8.8 µM): -0.303 ± 0.073
- selection coefficient against synonymous wild-type codons (log2) (methotrexate 44 µM): -0.0982 ± 0.095

Variant: R70P
- selection coefficient against synonymous wild-type codons (log2) (methotrexate 8.8 µM): 0.0286 ± 0.09
- selection coefficient against synonymous wild-type codons (log2) (methotrexate 44 µM): 0.0761 ± 0.17

Variant: R70Q
- selection coefficient against synonymous wild-type codons (log2) (methotrexate 8.8 µM): -0.188 ± 0.094
- selection coefficient against synonymous wild-type codons (log2) (methotrexate 44 µM): -0.195 ± 0.1

Variant: R70S
- selection coefficient against synonymous wild-type codons (log2) (methotrexate 8.8 µM): -0.157 ± 0.079
- selection coefficient against synonymous wild-type codons (log2) (methotrexate 44 µM): -0.155 ± 0.14

Variant: R70T
- selection coefficient against synonymous wild-type codons (log2) (methotrexate 8.8 µM): -0.278 ± 0.14
- selection coefficient against synonymous wild-type codons (log2) (methotrexate 44 µM): -0.0786 ± 0.097

Variant: R70V
- selection coefficient against synonymous wild-type codons (log2) (methotrexate 8.8 µM): -0.0738 ± 0.088
- selection coefficient against synonymous wild-type codons (log2) (methotrexate 44 µM): -0.107 ± 0.058

Variant: R70W
- selection coefficient against synonymous wild-type codons (log2) (methotrexate 8.8 µM): -0.17 ± 0.043
- selection coefficient against synonymous wild-type codons (log2) (methotrexate 44 µM): -0.0985 ± 0.056

Variant: R70Y
- selection coefficient against synonymous wild-type codons (log2) (methotrexate 8.8 µM): -0.171 ± 0.16
- selection coefficient against synonymous wild-type codons (log2) (methotrexate 44 µM): -0.126 ± 0.041

Variant: P71A
- selection coefficient against synonymous wild-type codons (log2) (methotrexate 8.8 µM): 0.289 ± 0.029
- selection coefficient against synonymous wild-type codons (log2) (methotrexate 44 µM): 0.325 ± 0.05

Variant: P71C
- selection coefficient against synonymous wild-type codons (log2) (methotrexate 8.8 µM): 0.319 ± 0.026
- selection coefficient against synonymous wild-type codons (log2) (methotrexate 44 µM): 0.344 ± 0.082

Variant: P71D
- selection coefficient against synonymous wild-type codons (log2) (methotrexate 8.8 µM): -0.0248 ± 0.059
- selection coefficient against synonymous wild-type codons (log2) (methotrexate 44 µM): 0.157 ± 0.15

Variant: P71E
- selection coefficient against synonymous wild-type codons (log2) (methotrexate 8.8 µM): 0.223 ± 0.04
- selection coefficient against synonymous wild-type codons (log2) (methotrexate 44 µM): 0.332 ± 0.05

Variant: P71G
- selection coefficient against synonymous wild-type codons (log2) (methotrexate 8.8 µM): 0.265 ± 0.034
- selection coefficient against synonymous wild-type codons (log2) (methotrexate 44 µM): 0.304 ± 0.041

Variant: P71H
- selection coefficient against synonymous wild-type codons (log2) (methotrexate 8.8 µM): 0.346 ± 0.029
- selection coefficient against synonymous wild-type codons (log2) (methotrexate 44 µM): 0.376 ± 0.048

Variant: P71I
- selection coefficient against synonymous wild-type codons (log2) (methotrexate 8.8 µM): 0.291 ± 0.035
- selection coefficient against synonymous wild-type codons (log2) (methotrexate 44 µM): 0.344 ± 0.12

Variant: P71K
- selection coefficient against synonymous wild-type codons (log2) (methotrexate 8.8 µM): 0.394 ± 0.018
- selection coefficient against synonymous wild-type codons (log2) (methotrexate 44 µM): 0.488 ± 0.016

Variant: P71L
- selection coefficient against synonymous wild-type codons (log2) (methotrexate 8.8 µM): 0.274 ± 0.045
- selection coefficient against synonymous wild-type codons (log2) (methotrexate 44 µM): 0.364 ± 0.034

Variant: P71M
- selection coefficient against synonymous wild-type codons (log2) (methotrexate 8.8 µM): 0.293 ± 0.011
- selection coefficient against synonymous wild-type codons (log2) (methotrexate 44 µM): 0.377 ± 0.04

Variant: P71Q
- selection coefficient against synonymous wild-type codons (log2) (methotrexate 8.8 µM): 0.362 ± 0.025
- selection coefficient against synonymous wild-type codons (log2) (methotrexate 44 µM): 0.448 ± 0.023

Variant: P71R
- selection coefficient against synonymous wild-type codons (log2) (methotrexate 8.8 µM): 0.334 ± 0.038
- selection coefficient against synonymous wild-type codons (log2) (methotrexate 44 µM): 0.426 ± 0.051

Variant: P71S
- selection coefficient against synonymous wild-type codons (log2) (methotrexate 8.8 µM): 0.329 ± 0.033
- selection coefficient against synonymous wild-type codons (log2) (methotrexate 44 µM): 0.414 ± 0.042

Variant: P71T
- selection coefficient against synonymous wild-type codons (log2) (methotrexate 8.8 µM): 0.365 ± 0.033
- selection coefficient against synonymous wild-type codons (log2) (methotrexate 44 µM): 0.433 ± 0.04

Variant: P71V
- selection coefficient against synonymous wild-type codons (log2) (methotrexate 8.8 µM): 0.324 ± 0.021
- selection coefficient against synonymous wild-type codons (log2) (methotrexate 44 µM): 0.382 ± 0.024

Variant: P71W
- selection coefficient against synonymous wild-type codons (log2) (methotrexate 8.8 µM): 0.0889 ± 0.029
- selection coefficient against synonymous wild-type codons (log2) (methotrexate 44 µM): 0.154 ± 0.056

Variant: L72A
- selection coefficient against synonymous wild-type codons (log2) (methotrexate 8.8 µM): 0.227 ± 0.064
- selection coefficient against synonymous wild-type codons (log2) (methotrexate 44 µM): 0.373 ± 0.065

Variant: L72C
- selection coefficient against synonymous wild-type codons (log2) (methotrexate 8.8 µM): 0.26 ± 0.027
- selection coefficient against synonymous wild-type codons (log2) (methotrexate 44 µM): 0.318 ± 0.064

Variant: L72D
- selection coefficient against synonymous wild-type codons (log2) (methotrexate 8.8 µM): -0.446 ± 0.12
- selection coefficient against synonymous wild-type codons (log2) (methotrexate 44 µM): -0.284 ± 0.029

Variant: L72E
- selection coefficient against synonymous wild-type codons (log2) (methotrexate 8.8 µM): -0.492 ± 0.04
- selection coefficient against synonymous wild-type codons (log2) (methotrexate 44 µM): -0.354 ± 0.048

Variant: L72F
- selection coefficient against synonymous wild-type codons (log2) (methotrexate 8.8 µM): 0.339 ± 0.017
- selection coefficient against synonymous wild-type codons (log2) (methotrexate 44 µM): 0.394 ± 0.013

Variant: L72G
- selection coefficient against synonymous wild-type codons (log2) (methotrexate 8.8 µM): -0.523 ± 0.062
- selection coefficient against synonymous wild-type codons (log2) (methotrexate 44 µM): -0.285 ± 0.12

Variant: L72H
- selection coefficient against synonymous wild-type codons (log2) (methotrexate 8.8 µM): -0.0509 ± 0.066
- selection coefficient against synonymous wild-type codons (log2) (methotrexate 44 µM): 0.0715 ± 0.21

Variant: L72I
- selection coefficient against synonymous wild-type codons (log2) (methotrexate 8.8 µM): 0.204 ± 0.029
- selection coefficient against synonymous wild-type codons (log2) (methotrexate 44 µM): 0.194 ± 0.029

Variant: L72K
- selection coefficient against synonymous wild-type codons (log2) (methotrexate 8.8 µM): -0.43 ± 0.13
- selection coefficient against synonymous wild-type codons (log2) (methotrexate 44 µM): -0.207 ± 0.11

Variant: L72M
- selection coefficient against synonymous wild-type codons (log2) (methotrexate 8.8 µM): 0.284 ± 0.022
- selection coefficient against synonymous wild-type codons (log2) (methotrexate 44 µM): 0.323 ± 0.055

Variant: L72N
- selection coefficient against synonymous wild-type codons (log2) (methotrexate 8.8 µM): -0.166 ± 0.18
- selection coefficient against synonymous wild-type codons (log2) (methotrexate 44 µM): 0.069 ± 0.17

Variant: L72P
- selection coefficient against synonymous wild-type codons (log2) (methotrexate 8.8 µM): 0.00245 ± 0.061
- selection coefficient against synonymous wild-type codons (log2) (methotrexate 44 µM): 0.0929 ± 0.089

Variant: L72Q
- selection coefficient against synonymous wild-type codons (log2) (methotrexate 8.8 µM): 0.108 ± 0.073
- selection coefficient against synonymous wild-type codons (log2) (methotrexate 44 µM): 0.219 ± 0.089

Variant: L72R
- selection coefficient against synonymous wild-type codons (log2) (methotrexate 8.8 µM): -0.505 ± 0.047
- selection coefficient against synonymous wild-type codons (log2) (methotrexate 44 µM): -0.221 ± 0.08
